US20240269278A1, “ANTI-CD47 ANTIBODY FOR COMBINED TREATMENT OF BLOOD TUMOR” (Nanjing Shunxin Pharmaceuticals Co., Ltd. of Chiatai …, priority 2021, published 2024)

Key:
[1] = Toxicity assay in single administration; format: in vivo, B-hCD47 mice
Text: Since CD47 is expressed on red cells and plays a role in clearing aged red cells, the toxic effects of the anti-CD47 antibodies in B-hCD47 mice were compared.

Raji cells = assay: Hematologic tumor mouse model of lymphoma Raji cells, survival; format: in vivo, NOD/SCID mice; details: 10 mg/kg intraperitoneal, 21 consecutive days
Procedure: A hematologic tumor mouse model was established using hematologic tumor Raji cells. The anti-CD47 antibodies were applied to the model for the evaluation of the pharmacodynamic activity.
A suspension of Raji cells in a PBS buffer was prepared at a concentration of 5×10^6 cells/mL, and was injected into female NOD/SCID mice via the tail vein at 0.1 mL/mouse. […] The administration was performed by intraperitoneal injection in doses of 10 mg/kg for 21 consecutive days. The survival time of the animals was observed.

HL60 cells = assay: Promotion of macrophage phagocytosis of tumor cells (flow cytometry); format: cell-based, human; details: CFSE-labeled HL60 cells, human macrophages
Procedure, shortened: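 Human blood monocytes differentiated into macrophages with 100 ng/mL M-CSF for 7 days. CFSE-labelled HL60 cells preincubated 1-2 h at 37 °C with anti-CD47 antibodies at 10 or 1 μg/mL, then co-cultured with macrophages 2-4 h. Macrophages stained for CD14/CD11b; phagocytosis rate (%) measured by flow cytometry.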

[2] = Thermostability assay based on Nano DSF (Prometheus NT.48); format: physicochemical
Procedure: The high-throughput protein stability analyzer Prometheus NT.48 is an instrument for acquiring various types of data such as protein molecular structure stability, aggregation stability, and colloid dispersion stability. The melting temperatures (Tm) and the aggregation temperatures (Tagg) of the anti-CD47 chimeric antibodies and the anti-CD47 humanized antibodies were determined using this instrument.

[3] = 2 days after administration, single 10 mpk via tail vein
[4] = 4 days after administration, single 10 mpk via tail vein
[5] = 7 days after administration, single 10 mpk via tail vein
[6] = 10 days after administration, single 10 mpk via tail vein
[7] = 14 days after administration, single 10 mpk via tail vein
[8] = day 0, single 10 mpk via tail vein

B1: hz3F10-6.1: humanized anti-CD47 antibody, heavy chain SEQ ID NO: 129, light chain SEQ ID NO: 131 (antibody)
heavy: QVQLVQSGAEVKKPGSSVKVSCKASGYTFSRYWIEWVRQAPGQGLEWMGEFIPGSDTTNYAQKFQGRVTITADISTSTAYMELSSLRSEDTAVYYCARGGLRRMDYWGQGTLVTVSSASTKGPSVFPLAPCSRSTSESTAALGCLVKDYFPEPVTVSWNSGALTSGVHTFPAVLQSSGLYSLSSVVTVPSSSLGTKTYTCNVDHKPSNTKVDKRV[omitted - human IgG4 Fc with S228P (EU numbers)]
light: DIQMTQSPSSLSASVGDRVTITCRASSSVSSTYLHWYQQKPGKAPKLWIYTTSTLASGVPSRFSGSGSGTSYTLTISSLQPEDFATYYCQQFSESTWTFGQGTKLEIKRTVAAPSVFIFPPSDEQLKSGTASVVCLLNNFYPREAKVQWKVDNALQSGNSQESVTEQDSKDSTYSLSSTLTLSKADYEKHKVYACEVTHQGLSSPVTKSFNRGEC
modifications: heavy chain; light chain
Question: With B1 as the molecule, how does the “Rate of change in HGB level (vs before administration)” value (“Rate of change in HGB level” below) [1, 3] read?
Answer: The value was −57.1%.

Question: What about the “Rate of change in RBC (vs before administration)” value (“Rate of change in RBC” for short) [1, 3] of the same molecule?
Answer: The value was −56.7%.

Question: And the “Rate of change in body weight (vs before administration)” value (“Rate of change in body weight” below) [1, 3]?
Answer: The value was −13.0%.

Question: What about the “Rate of change in HGB level” value [1, 4] of the same molecule?
Answer: Its value is −74.7%.

Question: And the “Rate of change in RBC” value [1, 4]?
Answer: Its value is −75.6%.

Question: And the “Rate of change in body weight” value [1, 4]?
Answer: The value was −15.8%.

Question: And the “Rate of change in HGB level” value [1, 5]?
Answer: The value was −39.2%.

Question: What about the “Rate of change in RBC” value [1, 5] of the same molecule?
Answer: Its value is −38.7%.

Question: What about the “Rate of change in body weight” value [1, 5] of the same molecule?
Answer: The value was −2.5%.

Question: What about the “Rate of change in HGB level” value [1, 6] of the same molecule?
Answer: The value was −6.0%.

Question: And the “Rate of change in RBC” value [1, 6]?
Answer: Its value is −6.6%.

Question: And the “Rate of change in body weight” value [1, 6]?
Answer: Its value is −8.4%.

Question: What about the “Rate of change in HGB level” value [1, 7] of the same molecule?
Answer: The value was −3.0%.

Question: And the “Rate of change in RBC” value [1, 7]?
Answer: Its value is −2.0%.

Question: And the “Rate of change in body weight” value [1, 7]?
Answer: The value was 8.2%.

Question: And the “Rate of change in HGB level” value [1, 8]?
Answer: Its value is 0.0%.

Question: What about the “Rate of change in RBC” value [1, 8] of the same molecule?
Answer: The value was 0.0%.

Question: What about the “Rate of change in body weight” value [1, 8] of the same molecule?
Answer: The value was 0.0%.

Question: What about the “course of body weight after administration (in words)” value ([1]; mouse, in vivo, 10 mg/kg) of the same molecule?
Answer: The value was “a decrease in body weight first and then an increase”.

Question: What about the “anti-tumor activity (in words)” value (Raji cells) of the same molecule?
Answer: Its value is “showed anti-tumor activity”.

Question: And the “day on which all the animals in the group died” value (Raji cells)?
Answer: The value was 21 days.

Question: What about the median survival time (Raji cells) of the same molecule?
Answer: Its median survival time is 17.5 days.

Question: What about the rate of phagocytosis (HL60 cells; 1 μg/mL antibody) of the same molecule?
Answer: Its rate of phagocytosis is 47.57%.

Question: And the rate of phagocytosis (HL60 cells; 10 μg/mL antibody)?
Answer: Its rate of phagocytosis is 60.91%.

Question: What about the “Tagg (aggregation temperature)” value [2] of the same molecule?
Answer: Its value is 68.6 °C.

Question: And the “Tm (melting temperature)” value [2]?
Answer: Its value is 68.6 °C.
